{"source": "a collection of fitness landscapes (doi:10.1126/science.1257360)", "parents": {"B1": {"name": "PhoQ; a variant is named by its letters at X, in order, P23837 (parent)", "chain": "MKKLLRLFFPLSLRVRFLLATAAVVLVLSLAYGMVALIGYSVSFDKTTFRLLRGESNLFYTLAKWENNKLHVELPENIDKQSPTMTLIYDENGQLLWAQRDVPWLMKMIQPDWLKSNGFHEIEADVNDTSLLLSGDHSIQQQLQEVREDDDDAEMTHSVAVNVYPATSRMPKLTIVVVDTIPVELKSSYMVWSWFIYVLSANLLLVIPLLWVAAWWSLRPIEALAKEVRELEEHNRELLNPATTRELTSLVRNLNRLLKSERERYDKYRTTLTDLTHSLKTPLXXLQXXLRSLRSEKMSVSDAEPVMLEQISRISQQIGYYLHRASMRGGTLLSRELHPVAPLLDNLTSALNKVYQRKGVNISLDISPEISFVGEQNDFVEVMGNVLDNACKYCLEFVEISARQTDEHLYIVVEDDGPGIPLSKREVIFDRGQRVDTLRPGQGVGLAVAREITEQYEGKIVAGESMLGGARMEVIFGRQHSAPKDE"}}, "note": "Some of the results follow.", "data": [{"variants_of": "B1", "assay": "enrichment ratio after two sorts for PhoP signalling (ratio (wild type AVST 3.29)); higher = more functional", "conditions": "with PhoP (E. coli)", "values": [{"variant": "YQGN", "enrichment ratio": "≤ 0.25"}, {"variant": "RVVC", "enrichment ratio": "≤ 0.25"}, {"variant": "IHEK", "enrichment ratio": "≤ 0.25"}, {"variant": "KYVR", "enrichment ratio": "≤ 0.25"}, {"variant": "YDVP", "enrichment ratio": "≤ 0.25"}, {"variant": "SAGG", "enrichment ratio": 6.77}, {"variant": "DYTT", "enrichment ratio": "≤ 0.25"}, {"variant": "ETFR", "enrichment ratio": "≤ 0.25"}, {"variant": "NFCM", "enrichment ratio": "≤ 0.25"}, {"variant": "IPAN", "enrichment ratio": "≤ 0.25"}, {"variant": "YSWV", "enrichment ratio": "≤ 0.25"}, {"variant": "TILD", "enrichment ratio": "≤ 0.25"}, {"variant": "HFDW", "enrichment ratio": "≤ 0.25"}, {"variant": "FGHT", "enrichment ratio": "≤ 0.25"}, {"variant": "NTHY", "enrichment ratio": "≤ 0.25"}, {"variant": "QGDK", "enrichment ratio": "≤ 0.25"}, {"variant": "RYKE", "enrichment ratio": "≤ 0.25"}, {"variant": "PIAA", "enrichment ratio": "≤ 0.25"}, {"variant": "SPRD", "enrichment ratio": "≤ 0.25"}, {"variant": "WTHA", "enrichment ratio": "≤ 0.25"}, {"variant": "ANFK", "enrichment ratio": "≤ 0.25"}, {"variant": "RVWQ", "enrichment ratio": "≤ 0.25"}, {"variant": "ISYY", "enrichment ratio": "≤ 0.25"}, {"variant": "RMQR", "enrichment ratio": "≤ 0.25"}, {"variant": "FDVR", "enrichment ratio": 0.644}, {"variant": "FQSN", "enrichment ratio": "≤ 0.25"}, {"variant": "ACSA", "enrichment ratio": 11}, {"variant": "FQNC", "enrichment ratio": "≤ 0.25"}, {"variant": "HCRP", "enrichment ratio": "≤ 0.25"}, {"variant": "RLML", "enrichment ratio": "≤ 0.25"}, {"variant": "FTDQ", "enrichment ratio": "≤ 0.25"}, {"variant": "WPLE", "enrichment ratio": "≤ 0.25"}, {"variant": "MPMD", "enrichment ratio": "≤ 0.25"}, {"variant": "YIAY", "enrichment ratio": "≤ 0.25"}, {"variant": "WSHA", "enrichment ratio": "≤ 0.25"}, {"variant": "HLPN", "enrichment ratio": "≤ 0.25"}, {"variant": "GHAH", "enrichment ratio": "≤ 0.25"}, {"variant": "PPFT", "enrichment ratio": "≤ 0.25"}, {"variant": "ARVK", "enrichment ratio": "≤ 0.25"}, {"variant": "HITW", "enrichment ratio": "≤ 0.25"}, {"variant": "YPCE", "enrichment ratio": "≤ 0.25"}, {"variant": "RNEA", "enrichment ratio": "≤ 0.25"}, {"variant": "AALA", "enrichment ratio": 7.36}, {"variant": "QGGP", "enrichment ratio": "≤ 0.25"}, {"variant": "YKTG", "enrichment ratio": "≤ 0.25"}, {"variant": "SAIQ", "enrichment ratio": 0.849}, {"variant": "AILY", "enrichment ratio": 1.94}, {"variant": "KDAI", "enrichment ratio": "≤ 0.25"}, {"variant": "LTWR", "enrichment ratio": "≤ 0.25"}, {"variant": "PDMR", "enrichment ratio": "≤ 0.25"}, {"variant": "FVIG", "enrichment ratio": "≤ 0.25"}, {"variant": "IVDW", "enrichment ratio": "≤ 0.25"}, {"variant": "VMCG", "enrichment ratio": "≤ 0.25"}, {"variant": "ITVN", "enrichment ratio": "≤ 0.25"}, {"variant": "GKAH", "enrichment ratio": "≤ 0.25"}, {"variant": "ATCR", "enrichment ratio": 6.44}, {"variant": "KCRM", "enrichment ratio": "≤ 0.25"}, {"variant": "QKYC", "enrichment ratio": "≤ 0.25"}, {"variant": "HENG", "enrichment ratio": "≤ 0.25"}, {"variant": "GELN", "enrichment ratio": 7.62}, {"variant": "VYMT", "enrichment ratio": "≤ 0.25"}, {"variant": "PNHK", "enrichment ratio": "≤ 0.25"}, {"variant": "GTLC", "enrichment ratio": 10}, {"variant": "MIRC", "enrichment ratio": "≤ 0.25"}, {"variant": "ESWC", "enrichment ratio": "≤ 0.25"}, {"variant": "QLRD", "enrichment ratio": "≤ 0.25"}, {"variant": "PKHY", "enrichment ratio": "≤ 0.25"}, {"variant": "FSLH", "enrichment ratio": 3.46}, {"variant": "RQAV", "enrichment ratio": "≤ 0.25"}, {"variant": "AFFC", "enrichment ratio": "≤ 0.25"}, {"variant": "WFRM", "enrichment ratio": "≤ 0.25"}, {"variant": "KDMS", "enrichment ratio": "≤ 0.25"}, {"variant": "KNPV", "enrichment ratio": "≤ 0.25"}, {"variant": "CRAL", "enrichment ratio": "≤ 0.25"}, {"variant": "KPWS", "enrichment ratio": "≤ 0.25"}, {"variant": "QHSF", "enrichment ratio": "≤ 0.25"}, {"variant": "TCEK", "enrichment ratio": "≤ 0.25"}, {"variant": "LSGE", "enrichment ratio": "≤ 0.25"}, {"variant": "SRMS", "enrichment ratio": "≤ 0.25"}, {"variant": "EGGP", "enrichment ratio": "≤ 0.25"}, {"variant": "NYYF", "enrichment ratio": "≤ 0.25"}, {"variant": "MCRL", "enrichment ratio": "≤ 0.25"}, {"variant": "SQIT", "enrichment ratio": 0.672}, {"variant": "LMQC", "enrichment ratio": "≤ 0.25"}, {"variant": "GQNT", "enrichment ratio": "≤ 0.25"}, {"variant": "HSVM", "enrichment ratio": 9.67}, {"variant": "TLFT", "enrichment ratio": "≤ 0.25"}, {"variant": "ALWG", "enrichment ratio": "≤ 0.25"}, {"variant": "PNFG", "enrichment ratio": "≤ 0.25"}, {"variant": "KVAP", "enrichment ratio": "≤ 0.25"}, {"variant": "AEHR", "enrichment ratio": "≤ 0.25"}, {"variant": "LQFY", "enrichment ratio": 1.39}, {"variant": "FTNP", "enrichment ratio": "≤ 0.25"}, {"variant": "DCSN", "enrichment ratio": "≤ 0.25"}, {"variant": "KDQT", "enrichment ratio": "≤ 0.25"}, {"variant": "KSKG", "enrichment ratio": "≤ 0.25"}, {"variant": "GLID", "enrichment ratio": "≤ 0.25"}, {"variant": "WSSR", "enrichment ratio": 0.679}, {"variant": "QVAT", "enrichment ratio": "≤ 0.25"}, {"variant": "DWAL", "enrichment ratio": "≤ 0.25"}, {"variant": "IPTH", "enrichment ratio": "≤ 0.25"}, {"variant": "FRYP", "enrichment ratio": "≤ 0.25"}, {"variant": "SLLG", "enrichment ratio": 6.8}, {"variant": "AQFL", "enrichment ratio": "≤ 0.25"}, {"variant": "THQD", "enrichment ratio": "≤ 0.25"}, {"variant": "FHMN", "enrichment ratio": "≤ 0.25"}, {"variant": "KDPV", "enrichment ratio": "≤ 0.25"}, {"variant": "GRVM", "enrichment ratio": "≤ 0.25"}, {"variant": "FDHD", "enrichment ratio": "≤ 0.25"}, {"variant": "FPWW", "enrichment ratio": 1.1}, {"variant": "GFRT", "enrichment ratio": "≤ 0.25"}, {"variant": "LLQK", "enrichment ratio": "≤ 0.25"}, {"variant": "FHDC", "enrichment ratio": "≤ 0.25"}, {"variant": "HRHI", "enrichment ratio": "≤ 0.25"}, {"variant": "GFMY", "enrichment ratio": "≤ 0.25"}, {"variant": "KHHF", "enrichment ratio": "≤ 0.25"}, {"variant": "RGIA", "enrichment ratio": "≤ 0.25"}, {"variant": "HESS", "enrichment ratio": "≤ 0.25"}, {"variant": "NGNG", "enrichment ratio": "≤ 0.25"}, {"variant": "GQAG", "enrichment ratio": "≤ 0.25"}, {"variant": "IMLK", "enrichment ratio": "≤ 0.25"}, {"variant": "YLFN", "enrichment ratio": "≤ 0.25"}, {"variant": "TEDQ", "enrichment ratio": "≤ 0.25"}, {"variant": "NRLH", "enrichment ratio": "≤ 0.25"}, {"variant": "AQVL", "enrichment ratio": 6.96}, {"variant": "MMVC", "enrichment ratio": "≤ 0.25"}, {"variant": "TPKM", "enrichment ratio": "≤ 0.25"}, {"variant": "TQHP", "enrichment ratio": "≤ 0.25"}, {"variant": "AVIA", "enrichment ratio": "≤ 0.25"}, {"variant": "DVEE", "enrichment ratio": "≤ 0.25"}, {"variant": "GQYP", "enrichment ratio": "≤ 0.25"}, {"variant": "LKYA", "enrichment ratio": "≤ 0.25"}, {"variant": "TSLM", "enrichment ratio": 16.7}, {"variant": "QGPS", "enrichment ratio": "≤ 0.25"}, {"variant": "YFRA", "enrichment ratio": "≤ 0.25"}, {"variant": "MMHH", "enrichment ratio": "≤ 0.25"}, {"variant": "YAMA", "enrichment ratio": "≤ 0.25"}, {"variant": "PRRG", "enrichment ratio": "≤ 0.25"}, {"variant": "GLWQ", "enrichment ratio": "≤ 0.25"}, {"variant": "TETA", "enrichment ratio": "≤ 0.25"}, {"variant": "EYRN", "enrichment ratio": "≤ 0.25"}, {"variant": "AWRM", "enrichment ratio": "≤ 0.25"}, {"variant": "PNEE", "enrichment ratio": "≤ 0.25"}, {"variant": "FWHN", "enrichment ratio": "≤ 0.25"}, {"variant": "EHPW", "enrichment ratio": "≤ 0.25"}, {"variant": "GKIG", "enrichment ratio": "≤ 0.25"}, {"variant": "QTYS", "enrichment ratio": 2.9}, {"variant": "KKIF", "enrichment ratio": "≤ 0.25"}, {"variant": "RVLG", "enrichment ratio": "≤ 0.25"}, {"variant": "HGWP", "enrichment ratio": "≤ 0.25"}, {"variant": "IGVT", "enrichment ratio": "≤ 0.25"}, {"variant": "MMTN", "enrichment ratio": "≤ 0.25"}, {"variant": "MDRP", "enrichment ratio": "≤ 0.25"}, {"variant": "TYKC", "enrichment ratio": "≤ 0.25"}, {"variant": "YRHV", "enrichment ratio": "≤ 0.25"}, {"variant": "TIEN", "enrichment ratio": "≤ 0.25"}, {"variant": "WWFG", "enrichment ratio": "≤ 0.25"}, {"variant": "QGHS", "enrichment ratio": "≤ 0.25"}, {"variant": "CSLD", "enrichment ratio": "≤ 0.25"}, {"variant": "FWSY", "enrichment ratio": "≤ 0.25"}, {"variant": "YYFH", "enrichment ratio": "≤ 0.25"}, {"variant": "RNCC", "enrichment ratio": "≤ 0.25"}, {"variant": "SRLW", "enrichment ratio": "≤ 0.25"}, {"variant": "QTLD", "enrichment ratio": "≤ 0.25"}, {"variant": "PYCA", "enrichment ratio": "≤ 0.25"}, {"variant": "PNVD", "enrichment ratio": "≤ 0.25"}, {"variant": "SPPQ", "enrichment ratio": "≤ 0.25"}, {"variant": "KVGP", "enrichment ratio": "≤ 0.25"}, {"variant": "DVNW", "enrichment ratio": "≤ 0.25"}, {"variant": "VHRC", "enrichment ratio": "≤ 0.25"}, {"variant": "LITA", "enrichment ratio": "≤ 0.25"}, {"variant": "HIQF", "enrichment ratio": "≤ 0.25"}, {"variant": "ETVE", "enrichment ratio": "≤ 0.25"}, {"variant": "VYGC", "enrichment ratio": "≤ 0.25"}, {"variant": "NMNW", "enrichment ratio": "≤ 0.25"}, {"variant": "FVWS", "enrichment ratio": "≤ 0.25"}, {"variant": "HPFQ", "enrichment ratio": "≤ 0.25"}, {"variant": "FQCT", "enrichment ratio": "≤ 0.25"}, {"variant": "ANPI", "enrichment ratio": "≤ 0.25"}, {"variant": "FDGD", "enrichment ratio": "≤ 0.25"}, {"variant": "SRQD", "enrichment ratio": "≤ 0.25"}, {"variant": "GHMA", "enrichment ratio": "≤ 0.25"}, {"variant": "IPNR", "enrichment ratio": "≤ 0.25"}, {"variant": "PVKC", "enrichment ratio": "≤ 0.25"}, {"variant": "LVCP", "enrichment ratio": "≤ 0.25"}, {"variant": "QRNS", "enrichment ratio": "≤ 0.25"}, {"variant": "HWWR", "enrichment ratio": "≤ 0.25"}, {"variant": "WVYT", "enrichment ratio": "≤ 0.25"}, {"variant": "HDDG", "enrichment ratio": "≤ 0.25"}, {"variant": "IYNQ", "enrichment ratio": "≤ 0.25"}, {"variant": "RSCK", "enrichment ratio": "≤ 0.25"}, {"variant": "ICNT", "enrichment ratio": "≤ 0.25"}, {"variant": "IFLP", "enrichment ratio": "≤ 0.25"}, {"variant": "VERR", "enrichment ratio": "≤ 0.25"}, {"variant": "QVIG", "enrichment ratio": "≤ 0.25"}]}]}
